Laboratory results published in PubChem BioAssay AID360 (National Center for Advancing Translational Sciences (NCATS), 2006).
The whole screen tested about 48,000 compounds, of which about 550 (1.1%) were called active. About 4% were inconclusive and are not listed. Rule as the data show it: active = potency below about 15 µM; inconclusive = mostly about 16 µM to 33 µM; inactive = weaker than that. This is one part of the list.

molecular target: Lysosomal acid glucosylceramidase (Homo sapiens) (UniProt P04062); assay: Glucocerebrosidase; settings: purified enzyme, resorufin glucoside fluorescence (screen aimed at inhibitors), 20 min;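 also: the screen sought inhibitors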
How it was run: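 Normal human glucocerebrosidase (0.2 nM final) was assayed with resorufin β-D-glucopyranoside (30 uM final) in 50mM citric acid/KH2PO4, 10mM sodium taurocholate, 0.01% tween-20, pH 5.9. Compounds were titrated; fluorescence (Ex 548, Em 600) read after 20 min at RT.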
Potency is read from the fitted curve at half-maximal effect.

Chain of UniProt P04062 (P04062 whole entry, looked up): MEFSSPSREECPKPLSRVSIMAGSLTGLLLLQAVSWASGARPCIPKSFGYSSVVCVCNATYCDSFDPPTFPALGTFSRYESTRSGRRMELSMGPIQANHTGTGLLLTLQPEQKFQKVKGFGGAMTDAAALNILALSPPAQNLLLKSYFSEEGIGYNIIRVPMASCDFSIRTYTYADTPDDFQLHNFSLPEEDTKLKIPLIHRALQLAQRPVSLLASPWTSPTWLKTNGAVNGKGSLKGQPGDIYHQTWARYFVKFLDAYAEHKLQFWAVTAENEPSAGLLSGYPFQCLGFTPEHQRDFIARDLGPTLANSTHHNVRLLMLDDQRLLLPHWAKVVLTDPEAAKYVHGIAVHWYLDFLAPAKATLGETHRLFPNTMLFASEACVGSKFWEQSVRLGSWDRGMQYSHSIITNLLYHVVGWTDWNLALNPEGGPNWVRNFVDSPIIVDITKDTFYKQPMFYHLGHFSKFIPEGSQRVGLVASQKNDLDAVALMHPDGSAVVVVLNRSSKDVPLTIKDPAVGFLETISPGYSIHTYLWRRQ

Structure (SMILES) | Potency
O=C(Nc1nc2c(s1)CCCC2)Oc1ccccc1 | inactive: > 76.9 µM
Cc1ccc(S(=O)(=O)Nc2ccc(S(=O)(=O)Nc3ncccn3)cc2)cc1 | inactive: > 76.9 µM
CCOC(=O)c1ccc(N2C(=O)CC(NC3CCN(C(=O)c4ccc(F)cc4)CC3)C2=O)cc1 (stereo not given) | inactive: > 76.9 µM
CCOc1ccc(C2=Nn3cnnc3SC2)cc1 | inactive: > 76.9 µM
Cc1sc2ncnc(N[C@@H](CCC(=O)O)C(=O)O)c2c1C | inactive: > 76.9 µM
CCN(CC)CCN1C(=O)Cn2c(C)c(C)c3cccc1c32 | inactive: > 76.9 µM
OCC12COC(c3ccccc3)N1C(c1ccccc1)OC2 (stereo not given) | inactive: > 76.9 µM
COCCn1c(C)cc(C(=O)CSc2nnc3scc(-c4ccc(Cl)cc4)n23)c1C | inactive: > 76.9 µM
COc1ccccc1CNC(=O)C1CCN(S(C)(=O)=O)CC1 | inactive: > 76.9 µM
CCN(CC)S(=O)(=O)c1cc(C(=O)Nc2ccccc2C(=O)O)ccc1OC | inactive: > 76.9 µM
COCCOc1ccc(C(F)(F)F)cc1Nc1nc2ccccc2o1 | inactive
CCn1cc(C(=O)O)c(=O)c2cc(S(=O)(=O)N(C)C)ccc21 | inactive: > 76.9 µM
CN(CC(=O)NCc1ccc2c(c1)OCO2)S(=O)(=O)c1ccc(Br)s1 | inactive: > 76.9 µM
c1ccc(-c2oc3ncnc(NCCN4CCOCC4)c3c2-c2ccccc2)cc1 | active: 13.3 µM
COc1ccc2c(-c3ccccc3)cc3nnnn3c2c1 | inactive: > 76.9 µM
CCCCc1cc(=O)oc2cc(C)cc(OCc3nn[nH]n3)c12 | inactive: > 76.9 µM
CCOc1cc(C2C(C#N)=C(N)OC3CCCC(=O)C32)ccc1OCCN1CCOCC1 (stereo not given) | inactive: > 76.9 µM
CC(=O)OCN(C#N)c1nc(N(C)C)nc(N(C)C)n1 | inactive: > 76.9 µM
CCN1/C(=C/C(=O)c2ccco2)Sc2ccccc21 | inactive: > 76.9 µM
c1ccc2[nH]c(SCc3ccc(-c4nnco4)cc3)nc2c1 | inactive: > 76.9 µM

Structure (SMILES) | Potency
CC(C)CCn1c(CN(C)Cc2ccccc2)nc2c1c(=O)n(C)c(=O)n2C | inactive: > 76.9 µM
CCOc1cc(C2NC(=O)N(C)C(C)=C2C(=O)OC)cc(Br)c1O (stereo not given) | inactive: > 76.9 µM
CCC(=O)N1CCc2cc(S(=O)(=O)NC(Cc3ccccc3)C(=O)NC3CCCC3)ccc21 (stereo not given) | inactive: > 76.9 µM
O=C(Nc1ccccc1N1CCCC1)c1cccnc1 | inactive: > 76.9 µM
O=C(CCCOc1ccc(Cl)cc1Cl)NCCCO | inactive: > 76.9 µM
O=C(Nc1ccc(-c2nc3ccccc3[nH]2)cc1)C1CCCO1 (stereo not given) | inactive
CCCOC(=O)c1ccc2c(c1)C(=O)N(c1ccccc1)C2=O | inactive: > 76.9 µM
O=C(Nc1cccc(F)c1)c1cccc(S(=O)(=O)N2CCOCC2)c1 | inactive: > 76.9 µM
CCOc1ccccc1N1CCN(C(=O)c2c(C)noc2C)CC1 | inactive: > 76.9 µM
COc1cccc(Nc2ncc(C(=O)O)c3ccccc23)c1 | inactive: > 76.9 µM
O=C(O)C1C2C=CC(C2)C1C(=O)N1CCc2ccccc21 (stereo not given) | inactive: > 76.9 µM
Cc1cc(C(=O)CN2C(=O)NC3(CCCCC3)C2=O)c(C)n1Cc1ccc2c(c1)OCO2 | inactive
COCCCNC(=O)CCc1nc2cccnc2n1Cc1ccc(OC)cc1 | inactive: > 76.9 µM
O=C(Cn1nnc2ccccc2c1=O)NCc1ccco1 | inactive: > 76.9 µM
O=C(COc1ccccc1O)c1cccs1 | inactive: > 76.9 µM
O=C(O)CSc1nnc(CNc2ccccc2Cl)n1-c1ccccc1 | inactive: > 76.9 µM
CCO/C=C1/C(=O)N(CC)c2ccccc21 | inactive: > 76.9 µM
CCOc1ccc(C2C(C#N)=C(N)Oc3cc(C)n(Cc4ccco4)c(=O)c32)cc1OC (stereo not given) | inactive: > 76.9 µM
CS(=O)(=O)N(CC(=O)NC1CCCCCC1)Cc1ccccc1 | inactive: > 76.9 µM
CN1CCN(c2nc3c(c(=O)[nH]c(=O)n3C)n2CCOc2ccccc2)CC1 | inactive: > 76.9 µM

Structure (SMILES) | Potency
CCOCCCNC(=O)C1CCN(C(=O)N(C)C)CC1 | inactive: > 76.9 µM
Cc1cccc(-n2c(N)c(C(=O)NCCN3CCOCC3)c3nc4ccccc4nc32)c1 | inactive
O=C(c1ccc(Br)o1)N1CCN(c2ccccc2F)CC1 | inactive: > 76.9 µM
Cc1ccc(-c2cc(C(=O)Nc3c(C#N)cnn3C)no2)cc1 | inactive: > 76.9 µM
CC(C)c1c(O)nc(SCCC(=O)O)[nH]c1=O | inactive: > 76.9 µM
Cc1ccccc1-n1nnc2c(=O)oc3ccccc3c21 | inactive: > 76.9 µM
O=C(Cn1cccc1C(=O)c1ccccc1)NCc1cccnc1 | inactive: > 76.9 µM
COc1ccc(C2OC(=O)CC2C(=O)NC2CCCCCC2)cc1OC (stereo not given) | inactive: > 76.9 µM
Cc1ccccc1N(C)S(=O)(=O)c1ccc2[nH]cc(C(=O)NCC3CCCO3)c(=O)c2c1 (stereo not given) | inactive: > 76.9 µM
Cc1ccc(C2c3c(oc4ccccc4c3=O)C(=O)N2c2nnc(C)s2)o1 (stereo not given) | inactive: > 76.9 µM
CCCOc1ccc(C2C(=O)N(C3CCCCC3)CC(=O)N2CCC)cc1OC (stereo not given) | inactive: > 76.9 µM
OCCOCCn1c2ccccc2c2ccccc21 | inactive: > 76.9 µM
Cc1cc(C)nc(-n2nc(C)cc2NC(=O)c2ccc3c(c2)OCO3)n1 | inactive: > 76.9 µM
c1ccc(-c2noc(C34CC5CC(CC(C5)C3)C4)n2)nc1 | inactive: > 76.9 µM
CCc1nnc(NC(=O)c2cc3c(s2)CCCCC3)s1 | inactive: > 76.9 µM
Cc1nnc(SCC(=O)Nc2ccc(N3CCOCC3)cc2)o1 | inactive: > 76.9 µM
Cc1c(=O)n(OCc2ccccn2)c2ccccc2[n+]1[O-] | inactive: > 76.9 µM
CCOC(=O)Nc1ccc2c(c1)nc(CN1CCN(C(C)=O)CC1)n2C | inactive: > 76.9 µM
CC(=O)C1=C(O)C(=O)N(CO)C1c1ccccc1F (stereo not given) | inactive: > 76.9 µM
O=C1CC(c2cccc(Cl)c2)Cc2nc(N3CCN(c4ccccc4)CC3)ncc21 (stereo not given) | inactive: > 76.9 µM
